Measurements reported in PubChem BioAssay AID894 (National Center for Advancing Translational Sciences (NCATS), 2007).
Several values for one entry are separate records, joined by “and”; a condition that tells them apart may be missing. Equal entries are not always repeated. The whole screen tested about 150,000 compounds, of which about 6,500 (4.3%) were called active. Inconclusive means that the source gave no clear call. Such entries were picked first, then a sample of the others. Calls follow the shape of the dose curve; as a rule, active = well fitted inhibition curve with a large enough effect (not every such curve was filed as active); inconclusive = small, poorly fitted or top-dose-only effect, or another doubt; inactive = no such curve, though single readings can be large or run the other way. Potencies beside an inconclusive call are fits to weak or partial responses and may not hold up.
% is scaled to controls: 0 for no effect and ±100 for the full control effect; potency is read from the fitted curve at half-maximal effect; tags tell the direction and shape of the fitted curve.

The compounds below were run against 15-hydroxyprostaglandin dehydrogenase [NAD(+)] (Homo sapiens) (UniProt P15428) (assay: qHTS Assay for Inhibitors of HPGD (15-Hydroxyprostaglandin Dehydrogenase)). Conditions: purified HPGD, NADH fluorescence kinetic, PGE2 substrate; activity change, negative = inhibition: stronger effect = lower value.
Sequence of UniProt P15428 (P15428 whole entry, looked up): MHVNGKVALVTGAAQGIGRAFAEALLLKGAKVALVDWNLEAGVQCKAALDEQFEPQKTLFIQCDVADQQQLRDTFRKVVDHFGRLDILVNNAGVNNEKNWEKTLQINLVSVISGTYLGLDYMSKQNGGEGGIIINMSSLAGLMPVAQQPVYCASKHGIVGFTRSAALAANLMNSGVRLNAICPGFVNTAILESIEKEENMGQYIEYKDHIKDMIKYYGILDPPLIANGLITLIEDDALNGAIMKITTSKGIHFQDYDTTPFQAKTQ
Method in brief: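 20 nM HPGD preincubated 15 min at room temperature with compound in 50 mM Tris-HCl pH 8, 0.01% Tween 20. Started with 1 mM NAD+ and 30 uM prostaglandin E2; NADH fluorescence (360/450 nm) read 5 times over 30-s intervals, last minus first.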
For `C/C(=N\NC(=O)COc1ccc(C(C)(C)C)cc1)c1cc2ccccc2o1`, the Potency was inconclusive: 25.1 µM [inhibitor, partial curve, poor fit].
With `Cc1nnc2sc(-c3cccc4ccccc34)nn12` the Potency was inconclusive: 22.4 µM [inhibitor, partial curve].
`O=C(NCCc1ccccc1)/C(=C/c1ccco1)c1ccccc1` was tested, and the activity change, negative = inhibition was inactive: -25.2%.
`CC1(C)CCCN(C(=O)c2coc(=O)c(Br)c2)C1` was tested, and the Potency was inconclusive: 28.2 µM [inhibitor, partial curve].
In the case of `Cc1cc(C)cc(-n2c(O)c(C=NC3CCS(=O)(=O)C3)c3ccccc3c2=O)c1` (stereo not drawn), the activity change, negative = inhibition is reported as inactive: -13.7%.
`CCn1cc(C(=O)Nc2ccccc2C(=O)OC)c(=O)c2ccc(C)nc21` was tested, and the Potency was inconclusive: 14.1 µM [inhibitor, partial curve].
In the case of `CCOC(=O)c1oc2nc(C)c3c(c2c1N)CC(C)(C)OC3`, the Potency is reported as inconclusive: 28.2 µM [inhibitor, partial curve].
In the case of `CCOc1ccc(CC(=O)C2C(=O)CC(C)(C)CC2=O)cc1OCC`, the activity change, negative = inhibition is reported as inactive: -15.9%.
In the case of `Cc1ccc(-c2cccc(C(=O)NCc3ccccc3)n2)c2ccccc12`, the Potency is reported as inconclusive: 28.2 µM [inhibitor, partial curve].
In the case of `COc1ccc(-n2nnc3c(SCC(=O)NCc4ccco4)ncnc32)cc1`, the Potency is reported as active: 28.2 µM.
`CCN(CC)C(=O)c1ccc(-c2ccccc2)cc1` was tested, and the Potency was active: 0.631 µM.
For `Cc1ccc(S(=O)(=O)N2CCN(Cc3nc4sc5c(c4c(=O)[nH]3)CCCC5)CC2)cc1`, the Potency was inconclusive: 28.2 µM [inhibitor, partial curve].
For `O=C1OCCN1C(=O)[C@H]1[C@H](c2ccc(F)cc2)C(c2ccc(F)cc2)=NN1c1ccccc1`, the Potency was inconclusive: 14.1 µM [inhibitor, partial curve] and inconclusive: 31.6 µM [inhibitor, partial curve].
`N=c1c(S(=O)(=O)c2ccccc2)cc2c(=O)n3ccccc3nc2n1Cc1ccco1` was tested, and the Potency was inconclusive: 22.4 µM [inhibitor, partial curve].
`O=C(COC(=O)c1ccccc1NC(=O)c1ccco1)Nc1ccc2c(c1)OC(F)(F)O2` was tested, and the Potency was inconclusive: 25.1 µM [inhibitor, partial curve].
With `O=S(=O)(Cc1ccccc1)N1CCc2ccccc21` the activity change, negative = inhibition was inactive: -1.39%.
For `Cc1ccccc1Nc1nc(N)nc(CSCC(=O)Nc2cccc(Br)c2)n1`, the activity change, negative = inhibition was inactive: -6.51%.
With `CC(C)(C)c1ccc(-c2nc(C#N)c(NCc3cccnc3)o2)cc1` the Potency was inconclusive: 20 µM [inhibitor, partial curve].
For `N#Cc1c(NC(=O)c2cnccn2)sc2c1CCCC2`, the Potency was active: 28.2 µM.
In the case of `C=CCn1c(CCC(=O)O)ccc1-c1ccccc1`, the Potency is reported as inconclusive: 31.6 µM [inhibitor, partial curve].
`COc1ccc(N(C)C(=O)c2cc3c(Cl)nc4ccccc4c3s2)cc1` was tested, and the Potency was active: 15.8 µM.
For `Cc1n[nH]c(C)c1C(=O)CC1(O)C(=O)N(Cc2ccccc2)c2ccc(Br)cc21` (stereo not drawn), the activity change, negative = inhibition was inactive: -12%.
`C=CCn1c(=N)c(C(=O)NCCCOC)cc2c(=O)n3cccc(C)c3nc21` was tested, and the Potency was inconclusive: 22.4 µM [inhibitor, partial curve].
With `CCN(CC)C(=O)Sc1cccc2cccnc12` the Potency was inconclusive: 28.2 µM [inhibitor, partial curve].
For `COc1cc(/C=N/Nc2snc(SC)c2C#N)cc(OC)c1OC`, the Potency was inconclusive: 8.91 µM [inhibitor, partial curve].
With `COc1cc2c(=O)nc3n(c2cc1OC)C(c1ccccc1)N=C(N)N3` (stereo not drawn) the Potency was inconclusive: 25.1 µM [inhibitor, partial curve].
With `Cc1ccc(O)c(C(=O)c2cnc3onc(-c4ccc(F)cc4)c3c2)c1` the Potency was active: 12.6 µM.
`COc1cccc(C(=O)/C=C/Nc2cc(C)ccc2O)c1` was tested, and the Potency was inconclusive: 20 µM [inhibitor, partial curve].
With `Oc1ccccc1C(=S)N1CCCCCC1` the Potency was active: 8.91 µM.
In the case of `CC(=O)Nc1ccc(S(=O)(=O)N2CCN(C(=O)c3cccnc3)CC2)cc1`, the activity change, negative = inhibition is reported as inactive: -13.9%.
For `COc1cc(/C=N/Nc2ncc(C(F)(F)F)cc2Cl)cc(OC)c1O`, the Potency was active: 14.1 µM.
`Cc1cc(C(=O)COC(=O)Cc2n[nH]c(=O)c3ccccc23)c(C)n1-c1cccc(C(F)(F)F)c1` was tested, and the activity change, negative = inhibition was inactive: -24.2%.
In the case of `CN1C(=O)N(C)C2(c3ccccc3)Nn3c(s/c(=C/c4ccco4)c3=O)=NC12c1ccccc1` (stereo not drawn), the Potency is reported as inconclusive: 28.2 µM [inhibitor, partial curve].
With `CCN(CC)c1ccc(SS(=O)(=O)O)cc1` the Potency was active: 2.82 µM and active: 8.91 µM.
`CCCCOCP(=O)(CCCC)COCCCC` was tested, and the Potency was inconclusive: 28.2 µM [inhibitor, partial curve].
`COc1cc(/C=N/NC(=O)CC2(C)OCCCO2)ccc1OCc1ccccc1` was tested, and the Potency was inconclusive: 35.5 µM [inhibitor, single point].
For `CCOC(=O)c1cnn(-c2ccccc2)c1NC(=O)c1ccccc1C`, the activity change, negative = inhibition was inactive: -3.16%.
`CCOC(=O)c1ccc(Nc2cc(C)nc(N3CCOCC3)n2)cc1` was tested, and the Potency was inconclusive: 28.2 µM [inhibitor, single point].
In the case of `CCCCC(=O)Nc1ccc2c(c1)C(=O)NC2=O`, the Potency is reported as inconclusive: 28.2 µM [inhibitor, partial curve].
For `Cc1nn(C)c(C)c1S(=O)(=O)N1CCCC(C(=O)NCC2COc3ccccc3O2)C1` (stereo not drawn), the activity change, negative = inhibition was inactive: -17.7%.
In the case of `O=C(OCC1OC(OC(=O)c2cc(O)c(O)c(OC(=O)c3cc(O)c(O)c(O)c3)c2)[C@@H](OC(=O)c2cc(O)c(O)c(OC(=O)c3cc(O)c(O)c(O)c3)c2)C(OC(=O)c2cc(O)c(O)c(OC(=O)c3cc(O)c(O)c(O)c3)c2)C1OC(=O)c1cc(O)c(O)c(OC(=O)c2cc(O)c(O)c(O)c2)c1)c1cc(O)c(O)c(OC(=O)c2cc(O)c(O)c(O)c2)c1` (stereo partly drawn), the Potency is reported as active: 3.16 µM.
For `O=C(O)/C=C/c1nc(-c2ccccc2)n2ccccc12`, the Potency was inconclusive: 35.5 µM [inhibitor, single point].
`O=[N+]([O-])c1cccc(-c2ccc(/C=N/n3c(-c4ccccc4)n[nH]c3=S)o2)c1` was tested, and the Potency was inconclusive: 0.158 µM [inhibitor, full curve].
